The values below come from publication PMC5681660, “Reduced hepatitis B and D viral entry using clinically applied drugs as novel inhibitors of the bile acid transporter NTCP” (Scientific Reports, 2017).

Test [1] has as its target T1, human NTCP (Homo sapiens, UniProt Q14973).
T1 sequence (Q14973 1-349): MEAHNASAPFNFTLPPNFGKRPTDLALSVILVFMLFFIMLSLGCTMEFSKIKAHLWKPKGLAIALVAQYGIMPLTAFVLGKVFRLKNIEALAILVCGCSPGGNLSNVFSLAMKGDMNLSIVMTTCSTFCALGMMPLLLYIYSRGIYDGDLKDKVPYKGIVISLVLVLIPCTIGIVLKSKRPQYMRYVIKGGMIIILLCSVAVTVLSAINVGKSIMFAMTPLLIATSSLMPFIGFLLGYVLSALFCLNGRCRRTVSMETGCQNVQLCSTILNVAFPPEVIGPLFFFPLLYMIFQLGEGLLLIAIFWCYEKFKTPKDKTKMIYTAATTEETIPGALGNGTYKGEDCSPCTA
Description: Screening taurocholate uptake assay (96-well, [14C]taurocholate, 10 µM drug). Particulars: for remaining activity at 10 µM: 10 min, read-out: %NTCP activity.

The target in test [2] is T1, human NTCP. Description: Screening fluorescent competitive Myrcludex B-FITC binding assay (96-well, 10 µM drug).
[3] abbreviates: 0.5 h, read-out: %NTCP binding, Prestwick library screen, Myrcludex B-FITC binding, 10 µM drug.
Where [4] appears, read: screen, 10 µM drug, Myrcludex B-FITC binding.
The mark [5] stands for this setting: Prestwick library screen, 10 µM drug, Myrcludex B-FITC binding.
Setting [6] is: Prestwick library screen, [14C]taurocholate uptake, 10 µM drug.
[7] abbreviates: Prestwick library screen, Myrcludex B-FITC binding, 10 µM drug.
Where [8] appears, read: 0.5 h, read-out: %NTCP binding, Prestwick library screen, 10 µM drug, Myrcludex B-FITC binding.

SMILES strings stand for the structures. Where a name gives a salt, the structure may show the parent alone. Read-outs that look alike come from different tables or passages of the source. Non-standard residues stand in square brackets, D forms with d. Residues, ends and D or L forms follow the SMILES beside them. *: point of attachment. Sta = CC(C)C[C@H](N)[C@@H](O)CC(=O)O; pGlu = O=C1CC[C@@H](C(=O)O)N1; Isovaleryl = CC(C)CC(=O)*; Thz = O=C(O)[C@@H]1CSCN1

For `CC(=O)CCCCn1c(=O)c2c(ncn2C)n(C)c1=O` [Pentoxifylline], the remaining activity at 10 µM came to 91.8% on human NTCP [1] and 50.2% on human NTCP [2] (0.5 h, read-out: %NTCP binding).
As to `C1CCc2nnnn2CC1` [Pentylenetetrazole], the remaining activity at 10 µM worked out at 118% on human NTCP [1] and 77.7% at human NTCP [2] (setting [3]).
`CC(C)CC(=O)N[C@H](C(=O)N[C@H](C(=O)N[C@@H](CC(C)C)[C@@H](O)CC(=O)N[C@@H](C)C(=O)N[C@@H](CC(C)C)[C@@H](O)CC(=O)O)C(C)C)C(C)C` [Pepstatin A] (Isovaleryl-VV[Sta]A[Sta]-OH): the remaining activity at 10 µM at human NTCP [1] came to 63.6%; on human NTCP [2] (0.5 h, read-out: %NTCP binding), 67.2%.
As to `CCCN1C[C@H](CSC)C[C@@H]2c3cccc4[nH]cc(c34)C[C@H]21` [Pergolide mesylate], the remaining activity at 10 µM was found to be 38.8% at human NTCP [1] and 76.6% on human NTCP [2] (0.5 h, read-out: %NTCP binding).
`C1CCC(C(CC2CCCCN2)C2CCCCC2)CC1` (stereo not shown) [Perhexiline maleate]: the remaining activity at 10 µM on human NTCP [1] came to 28.4%; at human NTCP [2] (0.5 h, read-out: %NTCP binding), 49%.
For `CCC[C@H](N[C@@H](C)C(=O)N1[C@H](C(=O)O)C[C@@H]2CCCC[C@@H]21)C(=O)OCC` [Perindopril], in that order: 82.8% and 104%.
On the same counts, the results for `O=C1[C@H]2CCCC[C@H]2C(=O)N1CCCCN1CCN(c2nsc3ccccc23)CC1` [Perospirone] are 97.6% and 84.4%.
For `CCOc1ccc(NC(C)=O)cc1` [Phenacetin], in that order: 83.5% and 82.1%.
`CC(Oc1ccccc1)C(=O)N[C@@H]1C(=O)N2[C@@H]1SC(C)(C)[C@@H]2C(=O)[O-].[K+]` (stereo partly shown) [Phenethicillin potassium salt]: the “%NTCP activity” value on human NTCP [1] (screen, 10 µM drug, [14C]taurocholate uptake) is given as 63.7815%. For the same compound, the “%NTCP binding” value at human NTCP [2] (setting [4]) amounted to 93.2901%.
Turning to `O=C1c2ccccc2C(=O)C1c1ccccc1` [Phenindione], the remaining activity at 10 µM is 105% on human NTCP [1] and 74.9% on human NTCP [2] (0.5 h, read-out: %NTCP binding).
On the same counts, the results for `CN(C)CCC(c1ccccc1)c1ccccn1` (stereo not shown) [Pheniramine maleate] are 128% and 107%.
On the same counts, the results for `CN1C(=O)CC(c2ccccc2)C1=O` (stereo not shown) [Phensuximide] are 84.3% and 110%.
Take `CC(C)(N)Cc1ccccc1.Cl` [Phentermine hydrochloride]: the “%NTCP activity” value at human NTCP [1] is recorded as 125.158%. Moreover, the “%NTCP binding” value at human NTCP [2] (setting [5]) amounted to 72.3854%.
In the case of `Cc1ccc(N(CC2=NCCN2)c2cccc(O)c2)cc1` [Phentolamine hydrochloride], the remaining activity at 10 µM on human NTCP [1] was 113%; on human NTCP [2] (0.5 h, read-out: %NTCP binding) it was 62.3%.
On the same counts, the results for `CCCCC1C(=O)N(c2ccccc2)N(c2ccccc2)C1=O` [Phenylbutazone] are 57.1% and 85.3%.
With `CC(N)C(O)c1ccccc1` (stereo not shown) [Phenylpropanolamine hydrochloride], the remaining activity at 10 µM came out at 57.8% on human NTCP [1] and 65.5% at human NTCP [2] (0.5 h, read-out: %NTCP binding).
On the same counts, the results for `O=C(O)c1ccccc1C(=O)Nc1ccc(S(=O)(=O)Nc2nccs2)cc1` [Phthalylsulfathiazole] are 108% and 89.4%.
As for `COc1ccc(C(=O)NCc2cccnc2)cc1C(=O)NCc1cccnc1.O` [Picotamide monohydrate], the “%NTCP activity” value on human NTCP [1] (setting [6]) is on record as 66.447%. Further, the “%NTCP binding” value on human NTCP [2] (setting [7]) is given as 89.8526%.
As to `C=C(C)[C@@H]1[C@H]2OC(=O)[C@@H]1[C@]1(O)C[C@H]3O[C@]34C(=O)O[C@H]2[C@]14C` [Picrotoxinin], the remaining activity at 10 µM is 91.2% on human NTCP [1] and 87.5% at human NTCP [2] (0.5 h, read-out: %NTCP binding).
On the same counts, the results for `O=C1CC[C@@H](C(=O)N2CSC[C@H]2C(=O)O)N1` [Pidotimod] ([pGlu]-[Thz]-OH) are 82.5% and 84.8%.
For `CC[C@@H]1C(=O)OC[C@@H]1Cc1cncn1C` [Pilocarpine nitrate], in that order: 26.4% and 51.5%.
In the case of `CN1CCC(=C2c3ccccc3Sc3ccccc32)CC1` [Pimethixene maleate], the remaining activity at 10 µM stood at 35.1% at human NTCP [1] and 75.4% at human NTCP [2] (0.5 h, read-out: %NTCP binding).
For `CC(N/C(=N\C#N)Nc1ccncc1)C(C)(C)C` (stereo not shown) [Pinacidil], in that order: 33.5% and 59.9%.
On the same counts, the results for `CCn1cc(C(=O)O)c(=O)c2cnc(N3CCNCC3)nc21` [Pipemidic acid] are 54.3% and 119%.
`CC[N+]1(C)CCCC(OC(=O)C(O)(c2ccccc2)c2ccccc2)C1` (stereo not shown) [Pipenzolate bromide]: the remaining activity at 10 µM on human NTCP [1] was 102%; on human NTCP [2] (0.5 h, read-out: %NTCP binding), 89%.
For `CC(=O)c1ccc2c(c1)N(CCCN1CCC(CCO)CC1)c1ccccc1S2` [Piperacetazine], in that order: 114% and 90.1%.
On the same counts, the results for `CCN1CCN(C(=O)N[C@@H](C(=O)N[C@@H]2C(=O)N3[C@@H]2SC(C)(C)[C@@H]3C(=O)O)c2ccccc2)C(=O)C1=O` [Piperacillin sodium salt] are 38% and 98.5%.
As to `CCN1CCCC(OC(=O)C(c2ccccc2)c2ccccc2)C1` (stereo not shown) [Piperidolate hydrochloride], the remaining activity at 10 µM on human NTCP [1] is 107%; on human NTCP [2] (0.5 h, read-out: %NTCP binding), 62%.
As for `NC(=O)CN1CCCC1=O` [Piracetam], the remaining activity at 10 µM at human NTCP [1] came out at 79.8%; on human NTCP [2] (setting [3]) it was 78.2%.
Take `Cc1nc2ccccn2c(=O)c1CCN1CCC(C(=O)c2ccc(F)cc2)CC1` [Pirenperone]: the remaining activity at 10 µM at human NTCP [1] is 97%; on human NTCP [2] (0.5 h, read-out: %NTCP binding) it was 90.3%.
Regarding `CN1CCN(CC(=O)N2c3ccccc3C(=O)Nc3cccnc32)CC1` [Pirenzepine dihydrochloride], the remaining activity at 10 µM was found to be 111% at human NTCP [1] and 79.6% on human NTCP [2] (0.5 h, read-out: %NTCP binding).
As to `NS(=O)(=O)c1cc(C(=O)O)cc(N2CCCC2)c1Oc1ccccc1` [Piretanide], the remaining activity at 10 µM was 123% at human NTCP [1] and 87.7% at human NTCP [2] (0.5 h, read-out: %NTCP binding).
Consider `Cl.c1cnc(N2CCN(Cc3ccc4c(c3)OCO4)CC2)nc1` [Piribedil hydrochloride], for which, on human NTCP [1] (Prestwick library screen, 10 µM drug, [14C]taurocholate uptake), the “%NTCP activity” value is recorded as 75.4496%. For the same compound, the “%NTCP binding” value on human NTCP [2] (setting [5]) is on record as 91.7024%.
For `CCn1cc(C(=O)O)c(=O)c2cnc(N3CCCC3)nc21` [Piromidic acid], the remaining activity at 10 µM is 120% on human NTCP [1] and 91.3% on human NTCP [2] (0.5 h, read-out: %NTCP binding).
For `CN1C(C(=O)Nc2ccccn2)=C(O)c2ccccc2S1(=O)=O` [Piroxicam], in that order: 123% and 77%.
For `CC(C)(C)C(=O)OCOC(=O)[C@@H]1N2C(=O)[C@@H](/N=C/N3CCCCCC3)[C@H]2SC1(C)C` [Pivmecillinam hydrochloride], in that order: 117% and 85.9%.
Regarding `CN1CCC(=C2c3ccccc3CCc3sccc32)CC1.O=C(O)CC(O)C(=O)O` [Pizotifen malate], the “%NTCP activity” value at human NTCP [1] (setting [6]) was found to be 78.3273%. Further, the “%NTCP binding” value at human NTCP [2] (setting [7]) stood at 102.931%.
`COc1cc([C@@H]2c3cc4c(cc3[C@H](O)[C@H]3COC(=O)[C@H]23)OCO4)cc(OC)c1OC` [Podophyllotoxin]: the remaining activity at 10 µM stood at 102% on human NTCP [1] and 134% at human NTCP [2] (0.5 h, read-out: %NTCP binding).
On the same counts, the results for `CCCCOc1ccc(OCCCN2CCOCC2)cc1` [Pramoxine hydrochloride] are 120% and 83%.
For `CC(C(=O)O)c1ccc2c(c1)Cc1cccnc1O2` (stereo not shown) [Pranoprofen], in that order: 96.9% and 84.5%.
On the same counts, the results for `C[C@]12C=CC(=O)C=C1CC[C@@H]1[C@@H]2[C@@H](O)C[C@@]2(C)[C@H]1CC[C@]2(O)C(=O)CO` [Prednisolone] are 20.9% and 84%.
As for `C[C@]12C=CC(=O)C=C1CC[C@@H]1[C@@H]2C(=O)C[C@@]2(C)[C@H]1CC[C@]2(O)C(=O)CO` [Prednisone], the remaining activity at 10 µM on human NTCP [1] was 113%; at human NTCP [2] (0.5 h, read-out: %NTCP binding) it was 100%.
As to `CC(C)C[C@H](CN)CC(=O)O` [Pregabalin], the remaining activity at 10 µM was 111% on human NTCP [1] and 54.9% at human NTCP [2] (setting [8]).
Regarding `CC(=O)[C@H]1CC[C@H]2[C@@H]3CC=C4C[C@@H](O)CC[C@]4(C)[C@H]3CC[C@]12C` [Pregnenolone], the “%NTCP activity” value at human NTCP [1] came to 24.3643%. Moreover, at human NTCP [2] (setting [4]), the “%NTCP binding” value is recorded as 82.2384%.
As for `CC(Cc1ccccc1)NCCC(c1ccccc1)c1ccccc1` (stereo not shown) [Prenylamine lactate], the remaining activity at 10 µM on human NTCP [1] is 91.1%; at human NTCP [2] (setting [8]) it was 31.1%.
Turning to `CS(=O)(=O)O.OC(CCN1CCCCC1)(c1ccccc1)c1ccccc1` [Pridinol methanesulfonate salt], the “%NTCP activity” value on human NTCP [1] is listed as 108.898%. For the same compound, the “%NTCP binding” value on human NTCP [2] (setting [5]) worked out at 66.5192%.
In the case of `CCCNC(C)C(=O)Nc1ccccc1C` (stereo not shown) [Prilocaine hydrochloride], the remaining activity at 10 µM on human NTCP [1] turned out to be 128%; at human NTCP [2] (0.5 h, read-out: %NTCP binding), 52.4%.
